Assay results published in the RNAGym collection of RNA variant scans (doi:10.1101/gad.245936.114).
Variants at the floor of the assay are shown more often than the library holds them.

B1: tRNA (parent)
chain: CUCUCGGUAGCCAAGUUGGUUUAAGGCGCAAGACUUUAAUUUAUCACUACGAAAUCUUGAGAUCGGGCGUUCGACUCGCCCCCGGGAGAUUUUUUCCUCGAGCAA

Variants of: B1
Assay: nonsense suppression (GFP-seq) (ratio to wild type); higher = more function; SUP4oc tRNA, yeast GFP reporter sort-seq
Summary of the method: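 Nonsense suppression (GFPSEQ) is the median GFP/RFP ratio of each sorting bin, weighted by the variant's estimated share of cells in that bin and expressed relative to the unmutated parent tRNA. Yeast strains carried genome-integrated variants of an ochre-suppressor tRNA from a library with ~3% random mutations, plus a galactose-driven GFP ochre reporter and RFP, and were grown in raffinose/galactose medium containing 80 mg/L adenine. Cells were sorted into GFP/RFP bins, each bin was Illumina-sequenced (phred ≥30), and variants were kept only with ≥100 reads and ≥30 cells.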
For U16C A33U, the nonsense suppression was at most 0.026.
Variant U16C A33C has a nonsense suppression of at most 0.026.
In the case of U16C G19U G32A U35G C80G, the nonsense suppression is reported as at most 0.026.
With U16G C29U A89C the nonsense suppression was at most 0.026.
G15U G32C showed a nonsense suppression of at most 0.026.
Variant U16C A62G U63C has a nonsense suppression of at most 0.026.
For U16A U20A U22A G59C, the nonsense suppression was at most 0.026.
Variant U16C U21A C77A has a nonsense suppression of at most 0.026.
With U16A C64A the nonsense suppression was at most 0.026.
Work on U16A G18U A60U yielded a nonsense suppression of at most 0.026.
For U16C C56G A60C, the nonsense suppression was at most 0.026.
U16A A60C C64U gave a nonsense suppression of at most 0.026.
Variant U16A U58G U76C G78A has a nonsense suppression of at most 0.026.
With U16G A30G C64G the nonsense suppression was at most 0.026.
For G15U U70G G73C, the nonsense suppression was at most 0.026.
In the case of G15U U20G U63G G86A, the nonsense suppression is reported as at most 0.026.
For U16C C83G, the nonsense suppression was at most 0.026.
In the case of U16C A62C, the nonsense suppression is reported as at most 0.026.
U16C U21G G25A A31G C34A G73U gave a nonsense suppression of at most 0.026.
Variant U16C G28A has a nonsense suppression of 1.06.
For G15U G88C, the nonsense suppression was at most 0.026.
In the case of U16A U35A C64A U71A, the nonsense suppression is reported as at most 0.026.
In the case of U16C C27G C34G U35A C80G, the nonsense suppression is reported as at most 0.026.
With G15U U16G the nonsense suppression was at most 0.026.
In the case of U16A C80G, the nonsense suppression is reported as at most 0.026.
U16A U22C A62G showed a nonsense suppression of at most 0.026.
For G15U G67C G73U, the nonsense suppression was at most 0.026.
In the case of U16C G85C, the nonsense suppression is reported as at most 0.026.
Work on U16C A33U G65A C68U C83G yielded a nonsense suppression of at most 0.026.
For G15U G28C C34A G61A G73C U76C C77G, the nonsense suppression was at most 0.026.
Variant U16G C34U has a nonsense suppression of at most 0.026.
In the case of U16C U70C C75A C79A, the nonsense suppression is reported as at most 0.026.
U16A G59U C72G showed a nonsense suppression of at most 0.026.
Variant U16A C64G G69U has a nonsense suppression of at most 0.026.
In the case of U16C U55C, the nonsense suppression is reported as 0.769.
For G15U U17A U70A G84C G88U, the nonsense suppression was at most 0.026.
U16C G78A showed a nonsense suppression of 0.837.
Variant U16A G28A has a nonsense suppression of 1.11.
With U16C U17G U55C A74C the nonsense suppression was at most 0.026.
U16G C27U G73A G88C gave a nonsense suppression of at most 0.026.
For G15U G66A, the nonsense suppression was at most 0.026.
In the case of G15U G66C, the nonsense suppression is reported as at most 0.026.
With U16C A23G G28U the nonsense suppression was at most 0.026.
Work on G15U G84C yielded a nonsense suppression of at most 0.026.
Variant U16C U58A G69A has a nonsense suppression of at most 0.026.
U16A C77G showed a nonsense suppression of at most 0.026.
In the case of U16C C56A C64A, the nonsense suppression is reported as at most 0.026.
G15U U22A C29G G67A U70C showed a nonsense suppression of at most 0.026.
For U16G A33G U70G, the nonsense suppression was at most 0.026.
In the case of U16A G78U, the nonsense suppression is reported as 0.188.
Work on G15U U16A G59C G66C U70A C82G yielded a nonsense suppression of at most 0.026.
Variant G15U U20C has a nonsense suppression of 0.0275.
For G15U U21G, the nonsense suppression was at most 0.026.
Variant U16C G73A has a nonsense suppression of 1.22.
With U16C U21G A31G G32C G69A U71C C75A G86A the nonsense suppression was at most 0.026.
Variant U16C C77G has a nonsense suppression of at most 0.026.
For U16A U22G G25U G67C, the nonsense suppression was at most 0.026.
Work on U16C A30G C34U yielded a nonsense suppression of at most 0.026.
In the case of U16C C79A, the nonsense suppression is reported as at most 0.026.
In the case of G15U G67U, the nonsense suppression is reported as at most 0.026.
In the case of U16A U17G, the nonsense suppression is reported as 1.16.
For U16A A87G G88A, the nonsense suppression was at most 0.026.
U16A U57C U76C showed a nonsense suppression of at most 0.026.
In the case of U16A C34A A60C U63G, the nonsense suppression is reported as at most 0.026.
With U16A G59C C80G the nonsense suppression was at most 0.026.
With U16C U57A G61C U76G the nonsense suppression was at most 0.026.
With U16G A31C the nonsense suppression was at most 0.026.
For U16G A31G, the nonsense suppression was 1.15.
Work on U16G A31U yielded a nonsense suppression of at most 0.026.
With G15U G32A U55A G88U A89U the nonsense suppression was at most 0.026.
U16C C29U A60G showed a nonsense suppression of at most 0.026.
In the case of U16A G85A, the nonsense suppression is reported as 1.03.
With G15U U17A U20A A31G G84C G86A the nonsense suppression was at most 0.026.
In the case of U16A U20C, the nonsense suppression is reported as 0.193.
Work on U16A U20G yielded a nonsense suppression of 1.11.
Variant U16C G19U G26A has a nonsense suppression of at most 0.026.
U16A A24C G65A U70G showed a nonsense suppression of at most 0.026.
G15U G61U gave a nonsense suppression of at most 0.026.
Variant U16C A23C G28A has a nonsense suppression of at most 0.026.
Variant U16A A89C has a nonsense suppression of at most 0.026.
In the case of U16C G18U A24C G25A, the nonsense suppression is reported as at most 0.026.
G15U U71C showed a nonsense suppression of at most 0.026.
With U16C G88U the nonsense suppression was at most 0.026.
U16A A60C U63C gave a nonsense suppression of at most 0.026.
U16C U71A showed a nonsense suppression of at most 0.026.
U16C U71G showed a nonsense suppression of at most 0.026.
U16C U63C gave a nonsense suppression of 1.11.
In the case of U16C U58A G88A, the nonsense suppression is reported as at most 0.026.
With U16C A33G A62G the nonsense suppression was at most 0.026.
In the case of U16C C29U, the nonsense suppression is reported as 1.11.
Work on U16A A31U G59C G86U yielded a nonsense suppression of at most 0.026.
Work on G15U U35A U63C C68A yielded a nonsense suppression of at most 0.026.
With U16A C64U A87G the nonsense suppression was at most 0.026.
U16A U20C A31C C56U showed a nonsense suppression of at most 0.026.
With U16A G65C the nonsense suppression was at most 0.026.
U16C G26A gave a nonsense suppression of at most 0.026.
U16C G26U gave a nonsense suppression of at most 0.026.
In the case of U16C C34A G67U G69U C75U, the nonsense suppression is reported as at most 0.026.
Variant U16C C27G has a nonsense suppression of at most 0.026.
For U16C U21C A31U, the nonsense suppression was 0.204.
With U16A U17A C72G the nonsense suppression was at most 0.026.
With U16A A24C the nonsense suppression was 0.872.
Variant G15U G67C C68A has a nonsense suppression of at most 0.026.
Work on G15U U76G C82G A87C yielded a nonsense suppression of at most 0.026.
U16A U35G gave a nonsense suppression of at most 0.026.
G15U G85C showed a nonsense suppression of at most 0.026.
For U16A C83G, the nonsense suppression was at most 0.026.
U16C A33U G65A C68U C83G G88U showed a nonsense suppression of at most 0.026.
With U16C G85C G88U the nonsense suppression was at most 0.026.
For U16C G65U, the nonsense suppression was at most 0.026.
With G15U U17A U76A C83A the nonsense suppression was at most 0.026.
Work on G15U U22G C34A A62C G65A U70A yielded a nonsense suppression of at most 0.026.
Work on U16C U21A U22G yielded a nonsense suppression of 0.861.
U16A U58G G59U A60U gave a nonsense suppression of at most 0.026.
G15U U16A U17G U57C U63G C64G G67U G73U showed a nonsense suppression of at most 0.026.
Work on U16C A74C yielded a nonsense suppression of at most 0.026.
U16G A54C C81U showed a nonsense suppression of 0.0601.
In the case of G15U G69C C75G, the nonsense suppression is reported as at most 0.026.
For U16C U20C U70A, the nonsense suppression was at most 0.026.
For U16A U21G U57A A60C G61U C64U, the nonsense suppression was at most 0.026.
Work on U16C A31G U57C yielded a nonsense suppression of 0.922.
For U16C C56G U76C, the nonsense suppression was at most 0.026.
Variant U16C C64G has a nonsense suppression of at most 0.026.
U16A U71C showed a nonsense suppression of at most 0.026.
U16A G19U gave a nonsense suppression of at most 0.026.
G15U U35G G73C showed a nonsense suppression of at most 0.026.
U16G A24U G66U G88A showed a nonsense suppression of at most 0.026.
U16A G65C G73C showed a nonsense suppression of at most 0.026.
G15U U55A G61U A62C A74C showed a nonsense suppression of at most 0.026.
G15U U71A C82G gave a nonsense suppression of at most 0.026.
U16C G59C G69U C72G gave a nonsense suppression of at most 0.026.
U16C G59C G69U C72U gave a nonsense suppression of at most 0.026.
For U16C G66C A87G, the nonsense suppression was at most 0.026.
Variant U16C A23C C34G G61A has a nonsense suppression of at most 0.026.
Variant U16C U57G A74C C79G has a nonsense suppression of at most 0.026.
G15U U55A gave a nonsense suppression of at most 0.026.
U16A C34A C64U showed a nonsense suppression of at most 0.026.
U16A U55G U57G A60U gave a nonsense suppression of at most 0.026.
U16A G73A gave a nonsense suppression of 0.63.
U16A G73C showed a nonsense suppression of at most 0.026.
Work on G15U U20A G32C yielded a nonsense suppression of at most 0.026.
Variant G15U G61A C75A has a nonsense suppression of at most 0.026.
U16G A54C C83U gave a nonsense suppression of at most 0.026.
Work on G15U U63C G69C yielded a nonsense suppression of at most 0.026.
Work on U16A A54C U57A G67A yielded a nonsense suppression of at most 0.026.
In the case of U16C G18U A24U C79G, the nonsense suppression is reported as at most 0.026.
With U16G A30U C64U G69A C80A the nonsense suppression was at most 0.026.
Work on U16C C81G yielded a nonsense suppression of at most 0.026.
Work on U16C G18C A62C yielded a nonsense suppression of at most 0.026.
For G15U U20G C79G C80A, the nonsense suppression was at most 0.026.
In the case of U16C G66U A74C, the nonsense suppression is reported as at most 0.026.
U16C U57A showed a nonsense suppression of at most 0.026.
Variant U16A C29A G65U has a nonsense suppression of at most 0.026.
In the case of U16C U35G, the nonsense suppression is reported as at most 0.026.
Work on U16C U35A yielded a nonsense suppression of at most 0.026.
For G15U U58G, the nonsense suppression was at most 0.026.
With U16A G59C the nonsense suppression was at most 0.026.
U16C C72A C77G G78U showed a nonsense suppression of at most 0.026.
U16A A23U showed a nonsense suppression of at most 0.026.
With U16A A23C the nonsense suppression was at most 0.026.
Work on U16A G19A A60C yielded a nonsense suppression of at most 0.026.
Work on U16G A54U yielded a nonsense suppression of 1.18.
For G15U U17A G28U C29G U57A, the nonsense suppression was at most 0.026.
In the case of U16A U71G C75G, the nonsense suppression is reported as at most 0.026.
U16A A33C gave a nonsense suppression of at most 0.026.
In the case of U16C G18A A24G G65C, the nonsense suppression is reported as at most 0.026.
Work on G15U U22C G32A A89C yielded a nonsense suppression of at most 0.026.
